# Laboratory results taken from PubChem BioAssay (NCATS).
# The inconclusive results got no clear call from the source; some entries with a clear call stand among them for comparison. For part of these data: Potencies of inconclusive entries are left out as doubtful fits. Active and inactive are the calls of the source. The call rests on the fitted dose curve; in most records, active means well fitted curve in the direction sought with a large enough effect; inconclusive means small, poorly fitted or top-dose-only effect, or another doubt; inactive means no such curve, though single readings can be large; an effect the other way counts as inactive or inconclusive.
# What was measured:
# Furin (Homo sapiens) = Furin (Homo sapiens) (UniProt P09958); assay: Furin counterscreen qHTS for Zika virus inhibitors (AID 1347149); conditions: furin enzymatic counterscreen, fluorogenic substrate; series mostly up to 57.5 µM; further: potency means the concentration at half of the fitted maximal effect; nearly all actives have a fitted effect of over 70% in size
# Chain of UniProt P09958 (P09958 whole entry, looked up): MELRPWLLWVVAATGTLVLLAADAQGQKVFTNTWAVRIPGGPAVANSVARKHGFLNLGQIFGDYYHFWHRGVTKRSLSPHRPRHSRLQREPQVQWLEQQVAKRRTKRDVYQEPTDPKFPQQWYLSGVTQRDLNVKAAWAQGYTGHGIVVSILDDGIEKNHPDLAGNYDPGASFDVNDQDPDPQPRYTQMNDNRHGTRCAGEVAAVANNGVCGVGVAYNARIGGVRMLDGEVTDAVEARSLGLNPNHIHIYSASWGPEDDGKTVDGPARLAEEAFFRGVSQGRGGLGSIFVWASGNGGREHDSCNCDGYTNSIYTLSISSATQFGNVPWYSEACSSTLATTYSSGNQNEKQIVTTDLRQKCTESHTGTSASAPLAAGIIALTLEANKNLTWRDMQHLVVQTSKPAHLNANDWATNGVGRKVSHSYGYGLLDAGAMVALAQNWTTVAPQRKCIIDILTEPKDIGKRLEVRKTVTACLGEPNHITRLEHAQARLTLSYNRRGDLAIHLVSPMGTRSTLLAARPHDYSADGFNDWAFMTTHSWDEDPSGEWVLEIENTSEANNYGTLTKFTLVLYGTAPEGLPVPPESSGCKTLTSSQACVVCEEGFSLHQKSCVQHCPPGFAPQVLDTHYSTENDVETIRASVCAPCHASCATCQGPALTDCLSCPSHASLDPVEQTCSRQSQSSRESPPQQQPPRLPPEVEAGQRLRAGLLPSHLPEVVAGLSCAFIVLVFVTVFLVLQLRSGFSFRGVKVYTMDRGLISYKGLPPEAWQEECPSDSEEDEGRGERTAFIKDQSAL
# Outline: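 Counterscreen measures cleavage of 2 microM BOC-RVRR-AMC, below its ~15 microM Km, by 5 nM full-length human furin at pH 7.0 after a 15-min compound preincubation. Inhibition derives from the 15-min fluorescence increase at 37C.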
# [1] = tested on: Zika virus NS2B-NS3 protease (unlinked complex); assay: Primary screen GU Rhodamine qHTS for Zika virus inhibitors: Unlinked NS2B-NS3 protease assay (AID 1347159); further: potency means the concentration at half of the fitted maximal effect; nearly all actives have a fitted effect of over 60% in size
# Outline: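 Enzyme 25 nM in Tris-HCl pH 8.0 + 0.01% Tween 20; compounds up to 114 microM, 15 min RT dark; + Rhod110 substrate 1.5 microM; read t0 and 15 min; delta fluorescence → % inhibition → 4-parameter Hill fit.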
# [2] = Confirmatory screen NINDS Rhodamine qHTS for Zika virus inhibitors (AID 1347161); further: potency means the concentration at half of the fitted maximal effect; nearly all actives have a fitted effect of over 60% in size
# Outline: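 Purified linked NS2B-NS3 protease (NS2B hydrophilic domain joined to NS3 protease by flexible linker), 25 nM in 10 mM Tris-HCl pH 8.0, 0.01% Tween 20. Compounds titrated, 15 min preincubation at room temperature; 1.5 microM Rhodamine110 substrate, FITC fluorescence change over 15 min.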
# [3] = Tertiary RLuc qRT-PCR qHTS assay for Zika virus inhibitors (AID 1347169); further: potency means the concentration at half of the fitted maximal effect; nearly all actives have a fitted effect of over 55% in size
# Outline: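 Luminescence read-out: live-cell Renilla luciferase substrate applied to infected Vero cells, signal measured after 1-1.5 hrs. Cells had received compound before ZIKV-RLuc (Cambodian strain, MOI 1-2) infection and were incubated 48-72 hrs at 37 degrees C.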
# [4] = Primary redox qHTS assay for identification of artifact compounds. (AID 1845223); conditions: Amplex Red/HRP redox cycling with DTT, fluorescence; series mostly up to 53.8 µM; further: potency means the concentration at half of the fitted maximal effect
# Outline: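 Redox-cycling detection via DTT (250 uM final) oxidation coupled to Amplex Red (25 uM)/HRP (250 mU/mL) in HBSS. 15 min preincubation plus 30 min after DTT, room temperature. Ex/Em 525/598 nm; 4-parameter Hill fit against DMSO and 10 uM DA3003.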
# HEK293 = assay: Cytotoxic Profiling of Annotated Libraries Using Quantitative High-Throughput Screening (AID 1296008); conditions: Five cell lines viability, CellTiter-Glo ATP luminescence, 48-72 h; max response: stronger effect = lower value; further: nearly all actives have a fitted effect of over 60% in size
# Outline: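 Cytotoxicity was measured as CellTiter-Glo ATP luminescence, read after 10 min at room temperature. Compound treatment of the cells lasted 48 or 72 hr at 37 degrees Celsius in a qHTS format.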
# Tags describe the fitted curve by direction and shape.
smiles,measurement,setting,value
CC(=O)O[C@@H]1C[C@]2(C)[C@@]3(CCC4[C@@]5(C)CC[C@H](O[C@@H]6O[C@H](C(=O)O)[C@@H](O)[C@H](O[C@@H]7O[C@H](CO)[C@H](O)[C@H](O)[C@H]7O[C@@H]7O[C@@H](C)[C@H](O)[C@@H](O)[C@H]7O[C@@H]7OC[C@](O)(CO)[C@H]7O)[C@H]6O[C@@H]6O[C@H](CO)[C@H](O)[C@H](O)[C@H]6O)C(C)(C)C5CC[C@]42C)O[C@@H](O)[C@]12C3CC(C)(C)[C@@H](OC(=O)/C=C/c1ccc(O)c(O)c1)[C@@H]2OC(=O)/C=C/c1ccccc1 (stereo partly specified),Potency,Furin (Homo sapiens),"inconclusive [inhibitor, partial curve, poor fit]"
same,Potency,[1],active: 3.16 µM
same,Potency,[2],active: 1.66 µM
same,Potency,[3],"inconclusive [inhibitor, partial curve]"
same,Potency,[4],"inconclusive [activator, partial curve, poor fit]"
same,outcome,HEK293,inactive
